# This is one part of the list.
# B1: Gal 8 (Homo sapiens) (protein)
# chain: MLSLNNLQNIIYNPVIPYVGTIPDQLDPGTLIVICGHVPSDADRFQVDLQNGSSVKPRADVAFHFNPRFKRAGCIVCNTLINEKWGREEITYDTPFKREKSFEIVIMVLKDKFQVAVNGKHTLLYGHRIGPEKIDTLGIYGKVNIHSIGFSFSSDLQSTQASSLELTEISRENVPKSGTPQLQTVSPSWDLQGHGSETFCSVLWTRVFLEIAFCRPIGLTVASFQSLPFAARLNTPMGPGRTVVVKGEVNANAKSFNVDLLAGKSKDIALHLNPRLNIKAFVRNSFLQESWGEEERNITSFPFSPGMYFEMIIYCDVREFKVAVNGVHSLEYKHRFKELSSIDTLEINGDIHLLEVRSW
# Tests used:
# Assay in all cases: glycan array binding signal (z-score within array); higher = stronger binding
# Settings in all cases: glycan notation: IUPAC condensed, linker removed
# [1] = biological target: Neu5Ac(a2-3)Gal(b1-4)GlcNAc(b1-2)Man
# Outline: (§1)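 The Consortium for Functional Glycomics database supplied 3228 glycan arrays, of which those lacking an available protein sequence were dropped. The binding signal, a within-array Z-score, was averaged across arrays of the same protein sequence and across linkers. Negative scores can be read as non-binding.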
# [2] = biological target: Neu5Ac(a2-3)Gal(b1-4)GlcNAc(b1-2)Man(a1-3)[GlcNAc(b1-2)Man(b1-4)GlcNAc(b1-2)Man(a1-6)]Man(b1-4)GlcNAc(b1-4)GlcNAc
# Outline: as §1
# [3] = biological target: Neu5Ac(a2-3)Gal(b1-4)GlcNAc(b1-2)Man(a1-3)[GlcNAc(b1-4)][Neu5Ac(a2-3)Gal(b1-4)GlcNAc(b1-2)Man(a1-6)]Man(b1-4)GlcNAc(b1-4)GlcNAc
# Outline: as §1
# [4] = biological target: Neu5Ac(a2-3)Gal(b1-4)GlcNAc(b1-2)Man(a1-3)[Neu5Ac(a2-3)Gal(b1-4)GlcNAc(b1-2)Man(a1-6)]Man(b1-4)GlcNAc(b1-4)GlcNAc
# Outline: as §1
# [5] = biological target: Neu5Ac(a2-3)Gal(b1-4)GlcNAc(b1-2)Man(a1-3)[Neu5Ac(a2-3)Gal(b1-4)GlcNAc(b1-2)Man(a1-6)]Man(b1-4)GlcNAc(b1-4)[Fuc(a1-6)]GlcNAc
# Outline: as §1
# [6] = biological target: Neu5Ac(a2-3)Gal(b1-4)GlcNAc(b1-2)Man(a1-3)[Neu5Ac(a2-6)Gal(b1-4)GlcNAc(b1-2)Man(a1-6)]Man(b1-4)GlcNAc(b1-4)GlcNAc
# Outline: as §1
# [7] = biological target: Neu5Ac(a2-3)Gal(b1-4)GlcNAc(b1-2)[Neu5Ac(a2-3)Gal(b1-4)GlcNAc(b1-4)]Man(a1-3)[GlcNAc(b1-4)][Neu5Ac(a2-3)Gal(b1-4)GlcNAc(b1-2)[Neu5Ac(a2-3)Gal(b1-4)GlcNAc(b1-6)]Man(a1-6)]Man(b1-4)GlcNAc(b1-4)GlcNAc
# Outline: as §1
# [8] = biological target: Neu5Ac(a2-3)Gal(b1-4)GlcNAc(b1-2)[Neu5Ac(a2-3)Gal(b1-4)GlcNAc(b1-4)]Man(a1-3)[GlcNAc(b1-4)][Neu5Ac(a2-3)Gal(b1-4)GlcNAc(b1-4)Man(a1-6)]Man(b1-4)GlcNAc(b1-4)GlcNAc
# Outline: as §1
# [9] = biological target: Neu5Ac(a2-3)Gal(b1-4)GlcNAc(b1-2)[Neu5Ac(a2-3)Gal(b1-4)GlcNAc(b1-6)]Man(a1-6)[Neu5Ac(a2-3)Gal(b1-4)GlcNAc(b1-2)Man(a1-3)]Man(b1-4)GlcNAc(b1-4)GlcNAc
# Outline: as §1
# [10] = biological target: Neu5Ac(a2-3)Gal(b1-4)GlcNAc(b1-2)[Neu5Ac(a2-3)Gal(b1-4)GlcNAc(b1-6)]Man(a1-6)[Neu5Ac(a2-3)Gal(b1-4)GlcNAc(b1-2)Man(a1-3)][GlcNAc(b1-4)]Man(b1-4)GlcNAc(b1-4)GlcNAc
# Outline: as §1
# [11] = biological target: Neu5Ac(a2-3)Gal(b1-4)GlcNAc(b1-3)Gal
# Outline: as §1
# [12] = biological target: Neu5Ac(a2-3)Gal(b1-4)GlcNAc(b1-3)Gal(b1-3)GlcNAc
# Outline: as §1
# [13] = biological target: Neu5Ac(a2-3)Gal(b1-4)GlcNAc(b1-3)Gal(b1-4)GlcNAc
# Outline: as §1
# [14] = biological target: Neu5Ac(a2-3)Gal(b1-4)GlcNAc(b1-3)Gal(b1-4)GlcNAc(b1-2)Man(a1-3)[Neu5Ac(a2-3)Gal(b1-4)GlcNAc(b1-3)Gal(b1-4)GlcNAc(b1-2)Man(a1-6)]Man(b1-4)GlcNAc(b1-4)GlcNAc
# Outline: as §1
# [15] = biological target: Neu5Ac(a2-3)Gal(b1-4)GlcNAc(b1-3)Gal(b1-4)GlcNAc(b1-3)Gal(b1-4)GlcNAc
# Outline: as §1
# [16] = biological target: Neu5Ac(a2-3)Gal(b1-4)GlcNAc(b1-3)Gal(b1-4)GlcNAc(b1-3)Gal(b1-4)GlcNAc(b1-2)Man(a1-3)[Neu5Ac(a2-3)Gal(b1-4)GlcNAc(b1-3)Gal(b1-4)GlcNAc(b1-3)Gal(b1-4)GlcNAc(b1-2)Man(a1-6)]GalNAc
# Outline: as §1
# [17] = biological target: Neu5Ac(a2-3)Gal(b1-4)GlcNAc(b1-3)Gal(b1-4)GlcNAc(b1-3)GalNAc
# Outline: as §1
# [18] = biological target: Neu5Ac(a2-3)Gal(b1-4)GlcNAc(b1-3)Gal(b1-4)GlcNAc(b1-3)[Neu5Ac(a2-3)Gal(b1-4)GlcNAc(b1-3)Gal(b1-4)GlcNAc(b1-6)]GalNAc
# Outline: as §1
# [19] = biological target: Neu5Ac(a2-3)Gal(b1-4)GlcNAc(b1-3)Gal(b1-4)GlcNAc(b1-6)[Gal(b1-3)]GalNAc
# Outline: as §1
# [20] = biological target: Neu5Ac(a2-3)Gal(b1-4)GlcNAc(b1-3)Gal(b1-4)[Fuc(a1-3)]GlcNAc
# Outline: as §1
# [21] = biological target: Neu5Ac(a2-3)Gal(b1-4)GlcNAc(b1-3)GalNAc
# Outline: as §1
# [22] = biological target: Neu5Ac(a2-3)Gal(b1-4)GlcNAc(b1-3)[Neu5Ac(a2-3)Gal(b1-4)GlcNAc(b1-6)]GalNAc
# Outline: as §1
# [23] = biological target: Neu5Ac(a2-3)Gal(b1-4)GlcNAc(b1-6)GalNAc
# Outline: as §1
# [24] = biological target: Neu5Ac(a2-3)Gal(b1-4)GlcNAc(b1-6)[Gal(b1-3)]GalNAc
# Outline: as §1
# [25] = biological target: Neu5Ac(a2-3)Gal(b1-4)GlcNAc(b1-6)[Neu5Ac(a2-3)Gal(b1-3)]GalNAc
# Outline: as §1
# [26] = biological target: Neu5Ac(a2-3)Gal(b1-4)GlcNAc6S
# Outline: as §1
# [27] = biological target: Neu5Ac(a2-3)Gal(b1-4)[Fuc(a1-3)]GlcNAc
# Outline: as §1
# [28] = biological target: Neu5Ac(a2-3)Gal(b1-4)[Fuc(a1-3)]GlcNAc(b1-2)Man
# Outline: as §1
# [29] = biological target: Neu5Ac(a2-3)Gal(b1-4)[Fuc(a1-3)]GlcNAc(b1-3)Gal
# Outline: as §1
# [30] = biological target: Neu5Ac(a2-3)Gal(b1-4)[Fuc(a1-3)]GlcNAc(b1-3)Gal(b1-4)GlcNAc
# Outline: as §1
# [31] = biological target: Neu5Ac(a2-3)Gal(b1-4)[Fuc(a1-3)]GlcNAc(b1-3)Gal(b1-4)[Fuc(a1-3)]GlcNAc(b1-3)Gal(b1-4)[Fuc(a1-3)]GlcNAc
# Outline: as §1
# [32] = biological target: Neu5Ac(a2-3)Gal(b1-4)[Fuc(a1-3)]GlcNAc(b1-3)GalNAc
# Outline: as §1
# [33] = biological target: Neu5Ac(a2-3)Gal(b1-4)[Fuc(a1-3)]GlcNAc(b1-6)[Gal(b1-3)]GalNAc
# Outline: as §1
# [34] = biological target: Neu5Ac(a2-3)Gal(b1-4)[Fuc(a1-3)]GlcNAc(b1-6)[Neu5Ac(a2-3)Gal(b1-3)]GalNAc
# Outline: as §1
# [35] = biological target: Neu5Ac(a2-3)Gal(b1-4)[Fuc(a1-3)]GlcNAc6S
# Outline: as §1
# [36] = biological target: Neu5Ac(a2-3)Gal6S(b1-4)GlcNAc
# Outline: as §1
# [37] = biological target: Neu5Ac(a2-3)Gal6S(b1-4)[Fuc(a1-3)]GlcNAc
# Outline: as §1
# Neu5Ac(a2-3)GalNAc = biological target: Neu5Ac(a2-3)GalNAc
# Outline: as §1
binder,measurement,setting,value
B1,glycan array binding signal (z-score),[1],-0.352
same,glycan array binding signal (z-score),[2],-0.329
same,glycan array binding signal (z-score),[3],-0.354
same,glycan array binding signal (z-score),[4],-0.581
same,glycan array binding signal (z-score),[5],-0.325
same,glycan array binding signal (z-score),[6],-0.33
same,glycan array binding signal (z-score),[7],-0.267
same,glycan array binding signal (z-score),[8],-0.314
same,glycan array binding signal (z-score),[9],-0.098
same,glycan array binding signal (z-score),[10],-0.329
same,glycan array binding signal (z-score),[11],-0.345
same,glycan array binding signal (z-score),[12],-0.191
same,glycan array binding signal (z-score),[13],-0.192
same,glycan array binding signal (z-score),[14],0.079
same,glycan array binding signal (z-score),[15],2.12
same,glycan array binding signal (z-score),[16],-0.239
same,glycan array binding signal (z-score),[17],-0.305
same,glycan array binding signal (z-score),[18],0.06
same,glycan array binding signal (z-score),[19],-0.289
same,glycan array binding signal (z-score),[20],0.272
same,glycan array binding signal (z-score),[21],-0.35
same,glycan array binding signal (z-score),[22],-0.345
same,glycan array binding signal (z-score),[23],-0.349
same,glycan array binding signal (z-score),[24],-0.143
same,glycan array binding signal (z-score),[25],-0.097
same,glycan array binding signal (z-score),[26],0.86
same,glycan array binding signal (z-score),[27],-0.22
same,glycan array binding signal (z-score),[28],-0.357
same,glycan array binding signal (z-score),[29],-0.359
same,glycan array binding signal (z-score),[30],-0.361
same,glycan array binding signal (z-score),[31],-0.384
same,glycan array binding signal (z-score),[32],-0.353
same,glycan array binding signal (z-score),[33],-0.347
same,glycan array binding signal (z-score),[34],-0.349
same,glycan array binding signal (z-score),[35],-0.261
same,glycan array binding signal (z-score),[36],-0.348
same,glycan array binding signal (z-score),[37],-0.386
same,glycan array binding signal (z-score),Neu5Ac(a2-3)GalNAc,-0.117

# Source: the supplement of paper PMC8728848
